The entries are a selection whose mix differs from that of the whole data set. At the low end of the ranking, values are background and their order means little. The list shows a part of the results.
Columns and labels:
[1] = biological target: AGO2 WT (phosphosite mutant background) S387D + S824A + S828D + S831D + S834A (UniProt Q9UKV8); assay: RNA Bind-n-Seq (nitrocellulose filter binding and sequencing); settings: constant regions annealed to DNA blockers; guide miR-122 5' phosphate; 30 mM Tris pH 8.0, 100 mM potassium acetate, 2 mM magnesium acetate, 0.5 mM TCEP, 0.005% NP-40, 0.01 mg/ml yeast tRNA; 3 nM AGO2-miR-122, 100 nM RNA library …; high values mean tight binding
UniProt Q9UKV8, sequence (Q9UKV8 whole entry S387D/S824A/S828D/S831D/S834A): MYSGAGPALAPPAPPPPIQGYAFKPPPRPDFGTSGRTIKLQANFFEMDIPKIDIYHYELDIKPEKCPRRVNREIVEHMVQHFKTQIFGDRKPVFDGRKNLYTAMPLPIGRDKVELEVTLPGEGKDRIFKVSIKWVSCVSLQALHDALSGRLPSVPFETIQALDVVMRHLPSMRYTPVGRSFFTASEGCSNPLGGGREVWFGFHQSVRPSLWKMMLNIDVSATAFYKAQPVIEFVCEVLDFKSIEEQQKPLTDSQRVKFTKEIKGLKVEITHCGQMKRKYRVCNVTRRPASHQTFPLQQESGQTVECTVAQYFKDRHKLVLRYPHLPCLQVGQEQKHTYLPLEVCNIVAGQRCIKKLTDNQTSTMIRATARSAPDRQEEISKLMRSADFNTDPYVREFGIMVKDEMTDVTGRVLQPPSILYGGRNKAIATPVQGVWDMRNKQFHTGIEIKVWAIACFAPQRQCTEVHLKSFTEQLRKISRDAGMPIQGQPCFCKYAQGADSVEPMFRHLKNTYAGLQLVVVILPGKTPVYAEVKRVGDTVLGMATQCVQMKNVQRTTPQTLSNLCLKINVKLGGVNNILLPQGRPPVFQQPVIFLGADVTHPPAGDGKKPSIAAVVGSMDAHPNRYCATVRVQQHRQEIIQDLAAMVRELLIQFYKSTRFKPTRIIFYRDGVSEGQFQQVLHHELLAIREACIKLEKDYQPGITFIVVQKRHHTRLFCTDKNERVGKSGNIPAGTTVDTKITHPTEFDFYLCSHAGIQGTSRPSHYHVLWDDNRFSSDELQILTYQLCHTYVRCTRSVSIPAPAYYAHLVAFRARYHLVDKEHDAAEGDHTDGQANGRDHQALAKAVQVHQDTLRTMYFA

[2] = biological target: AGO2 F182del S387D + S824A + S828D + S831D + S834A + del182-182 (UniProt Q9UKV8); assay: as above; settings: constant regions annealed to DNA blockers; guide miR-122 5' phosphate; 30 mM Tris pH 8.0, 100 mM potassium acetate, 2 mM magnesium acetate, 0.5 mM TCEP, 0.005% NP-40, 0.01 mg/ml yeast tRNA; 3 nM AGO2-miR-122, 100 nM RNA library …; high values mean tight binding

GAGUUCUACAGUCCGACGAUCCCAACAUACUCUACACCUGGAAUUCUCGGGUGCCAA / UGGAGUGUGACAAUGGUGUUUG / GATCGTCGGACTGTAGAACTC / TTGGCACCCGAGAATTCCA
binding signal (fold enrichment over input) [1]: 0.101 | binding signal (fold enrichment over input) [2]: 0.128

GAGUUCUACAGUCCGACGAUCCCAACACGCUCUACACCUGGAAUUCUCGGGUGCCAA / UGGAGUGUGACAAUGGUGUUUG / GATCGTCGGACTGTAGAACTC / TTGGCACCCGAGAATTCCA
binding signal (fold enrichment over input) [1]: 0.111 | binding signal (fold enrichment over input) [2]: 0.112

GAGUUCUACAGUCCGACGAUCCCAACACAUUUUACACCUGGAAUUCUCGGGUGCCAA / UGGAGUGUGACAAUGGUGUUUG / GATCGTCGGACTGTAGAACTC / TTGGCACCCGAGAATTCCA
binding signal (fold enrichment over input) [2]: 0.359

GAGUUCUACAGUCCGACGAUCCCAACGUACUUCGCACCUGGAAUUCUCGGGUGCCAA / UGGAGUGUGACAAUGGUGUUUG / GATCGTCGGACTGTAGAACTC / TTGGCACCCGAGAATTCCA
binding signal (fold enrichment over input) [1]: 0.0866 | binding signal (fold enrichment over input) [2]: 0.049

GAGUUCUACAGUCCGACGAUCCCAACACAUUCUGCACCUGGAAUUCUCGGGUGCCAA / UGGAGUGUGACAAUGGUGUUUG / GATCGTCGGACTGTAGAACTC / TTGGCACCCGAGAATTCCA
binding signal (fold enrichment over input) [1]: 0.0862 | binding signal (fold enrichment over input) [2]: 0.0753

GAGUUCUACAGUCCGACGAUCCCAACACGUCCUGCACCUGGAAUUCUCGGGUGCCAA / UGGAGUGUGACAAUGGUGUUUG / GATCGTCGGACTGTAGAACTC / TTGGCACCCGAGAATTCCA
binding signal (fold enrichment over input) [1]: 0.0973 | binding signal (fold enrichment over input) [2]: 0.0803

GAGUUCUACAGUCCGACGAUCCCAACGCAUUCUACACCUGGAAUUCUCGGGUGCCAA / UGGAGUGUGACAAUGGUGUUUG / GATCGTCGGACTGTAGAACTC / TTGGCACCCGAGAATTCCA
binding signal (fold enrichment over input) [1]: 0.106 | binding signal (fold enrichment over input) [2]: 0.114
